Reference: the supplement of paper PMC12067230
The data scatter; read single values as rough.

assay: amyloid nucleation score relative to library mode (yeast Sup35 reporter selection) (log enrichment difference); higher = more amyloid nucleation; sequences are the first 22 residues of the Bri2 peptide extended by up to 12 random residues; conditions: random library (experiment): 1;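 active = nucleation score significantly above 0 at FDR 0.05; inactive = not significantly above 0 or absent from output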
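Further: [psi-pin-] Saccharomyces cerevisiae expressing SupN fusions, induced by 100 µM Cu2SO4, selected 7 d at 30 °C without adenine and uracil, scored by deep sequencing of output versus input.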

Row | Sequence | amyloid nucleation score
1 | EASNCFAIRHFENKFAVETLICITVTGVS | inactive
2 | EASNCFAIRHFENKFAVETLICITW | 4.75
3 | EASNCFAIRHFENKFAVETLICITYVWYDGTSGR | inactive
4 | EASNCFAIRHFENKFAVETLICIVATSLSTFDTA | inactive
5 | EASNCFAIRHFENKFAVETLICIVAVPVYGKTSG | -0.511
6 | EASNCFAIRHFENKFAVETLICIVAVRGYRLLRL | inactive
7 | EASNCFAIRHFENKFAVETLICIVAYIYAFEGTE | inactive
8 | EASNCFAIRHFENKFAVETLICIVDFGDDFSYFA | 5.52
9 | EASNCFAIRHFENKFAVETLICIVEYMKVGMST | inactive
10 | EASNCFAIRHFENKFAVETLICIVFMYARVTIVY | inactive
11 | EASNCFAIRHFENKFAVETLICIVFRTGKSKQLR | 2.36
12 | EASNCFAIRHFENKFAVETLICIVFTLWLYRLMC | inactive
13 | EASNCFAIRHFENKFAVETLICIVGAWKVRCSWS | inactive
14 | EASNCFAIRHFENKFAVETLICIVGFWVKVLLAR | 3.06
15 | EASNCFAIRHFENKFAVETLICIVGLYMLTTPCQ | -0.0846
16 | EASNCFAIRHFENKFAVETLICIVHVN | inactive
17 | EASNCFAIRHFENKFAVETLICIVKGVYLTQAWR | inactive
18 | EASNCFAIRHFENKFAVETLICIVLIGFFSVM | 2.3
19 | EASNCFAIRHFENKFAVETLICIVLNQSLRRDTL | 3.68
20 | EASNCFAIRHFENKFAVETLICIVLS | inactive
21 | EASNCFAIRHFENKFAVETLICIVMYQILKMYAM | inactive
22 | EASNCFAIRHFENKFAVETLICIVNPLCCCGSEV | 7.78
23 | EASNCFAIRHFENKFAVETLICIVQKIVAEVGCR | inactive
24 | EASNCFAIRHFENKFAVETLICIVQRVKWQCMVQ | inactive
25 | EASNCFAIRHFENKFAVETLICIVR | inactive
26 | EASNCFAIRHFENKFAVETLICIVSMFIGMSAVE | inactive

same assay, conditions: random library (experiment): 2

Row | Sequence | amyloid nucleation score
27 | EASNCFAIRHFENKFAVETLICITYLNVF | 7.36
28 | EASNCFAIRHFENKFAVETLICIV | inactive
29 | EASNCFAIRHFENKFAVETLICIVAACVKHHSVW | inactive
30 | EASNCFAIRHFENKFAVETLICIVCNRHYRLYAV | inactive
31 | EASNCFAIRHFENKFAVETLICIVCVTVDALHGR | 1.37
32 | EASNCFAIRHFENKFAVETLICIVDFTNVFGLAR | 4.85
33 | EASNCFAIRHFENKFAVETLICIVESDPENMLRR | 4.98
34 | EASNCFAIRHFENKFAVETLICIVFMFYFRSSYV | inactive
35 | EASNCFAIRHFENKFAVETLICIVL | 6.93
36 | EASNCFAIRHFENKFAVETLICIVLCHMTVTIVD | 5.25
37 | EASNCFAIRHFENKFAVETLICIVMCLCFEDPVN | inactive
38 | EASNCFAIRHFENKFAVETLICIVMLTIYYVLTW | 2.64
39 | EASNCFAIRHFENKFAVETLICIVPIGAGGWNTL | 7.3
40 | EASNCFAIRHFENKFAVETLICIVQHCQVTFLSL | 0.0888
41 | EASNCFAIRHFENKFAVETLICIVS | 7.34

same assay, conditions: random library (experiment): 3

Row | Sequence | amyloid nucleation score
42 | EASNCFAIRHFENKFAVETLICIVAGARPRWSGS | inactive
43 | EASNCFAIRHFENKFAVETLICIVAHKVWVGDYM | inactive
44 | EASNCFAIRHFENKFAVETLICIVHGNVNRHRCA | 3.54
45 | EASNCFAIRHFENKFAVETLICIVICEQTNDDQR | 7.95
46 | EASNCFAIRHFENKFAVETLICIVITEYKVWVPR | inactive
47 | EASNCFAIRHFENKFAVETLICIVQ | 5.09
48 | EASNCFAIRHFENKFAVETLICIVRMECCKFLVA | 4.41
